PubChem BioAssay (NCI)
Several values for one entry are separate records, joined by “and”; a condition that tells them apart may be missing. Identical values can stand only once.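 How tested: cells in 96-well plates exposed to compound for 48 hours at five concentrations. GI50 = concentration required for 50% inhibition of growth. TGI is the concentration that stops growth completely.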

These compounds were tested on NCI-H322M lung (assay: NCI tumour cell line growth inhibition, 48 h).

SMILES | TGI | GI50
COc1ccc(C2NC(=S)Nc3c2c(=O)oc2c3ccc3ccccc32)cc1 (configuration not stated) | > 100 µM | –
CC(C)OC(=O)c1ccc(CCC2=CC(=O)C=CC2=O)cc1 | 92.6 µM | –
COc1cc(/C=C\c2cc(OC)c(OC)c(OC)c2)cc(N/C=C\C(=O)c2ccc(OC(F)(F)F)cc2)c1OC | > 100 µM | 11 µM
Nc1c(C(=O)O)nnc2cc(Cl)c(Cl)cc12 | > 100 µM | –
O=C1NC(N2CCOCC2)=N/C1=C\c1ccc(Cl)cc1 | > 100 µM | –
O=c1oc2ccccc2nc1/C=C(\O)c1ccc(Cl)cc1 | > 100 µM | –
CN(C)CCCN1C(=S)N(CCCN(C)C)c2c3ccccc3nc3c([N+](=O)[O-])ccc1c23 | 22.4 µM | –
CCCCCN(CCCCC)C(=O)[C@@H](CCC(=O)O)NC(=O)c1cc2ccccc2[nH]1 | > 100 µM | –
c1ccc2c(Cc3[nH]c4ccccc4c3Cc3c[nH]c4ccccc34)c[nH]c2c1 | 13.4 µM | –
CN(CCN1C(=O)c2cc([N+](=O)[O-])cc3cc([N+](=O)[O-])cc(c23)C1=O)CCN1C(=O)c2cc([N+](=O)[O-])cc3cc([N+](=O)[O-])cc(c23)C1=O | > 100 µM | –
O=c1ccc2nc3cc(Br)ccc3sc-2c1 | > 100 µM | –
CCC(C)[C@H]1O[C@]2(CC[C@@H]1C)C[C@@H]1C[C@@H](C/C=C(\C)[C@@H](OC3C[C@H](OC)C(O[C@H]4C[C@H](OC)[C@@H](O)[C@H](C)O4)[C@H](C)O3)[C@@H](C)/C=C/C=C3\CO[C@@H]4[C@H](O)C(C)=C[C@@H](C(=O)O1)[C@]34O)O2 (some centres not stated) | 15.4 µM | 3.36 µM
O=C(Cc1ccc(/C=C/C(=O)c2ncc[nH]2)cc1)Nc1ccc(F)cc1 | 10.2 µM | 3.35 µM
N.N.N.N.N.[Co+3].[I-].[N-]=[N+]=[N-] | > 100 µM | > 100 µM
CC1=Nc2ccccc2S/C1=C(/C)NNS(=O)(=O)c1ccc(C)cc1 | > 100 µM | –
COc1ccc(C/C(=N/O)C(=O)NCCc2cc(Br)c(OCCCN(C)C)c(Br)c2)cc1Br | 30.5 µM | –
COc1ccc(C2=C(Cl)c3cc(OC)c(OC)cc3C2OC)cc1OC (configuration not stated) | > 100 µM | –
O=C1CSC(/C=C/c2ccccc2)N1c1nc2cc3sc(N4C(=O)CSC4/C=C/c4ccccc4)nc3cc2s1 (configuration not stated) | > 100 µM | –
Cn1cnc([N+](=O)[O-])c1Sc1nc(N)nc2c1ncn2C1OC(CO)C(O)C1O (configuration not stated) | > 100 µM | –
Cc1ccc(S(=O)(=O)OCCn2cnc3nc(NC(=O)c4ccccc4)[nH]c(=O)c32)cc1 | > 100 µM | –
COc1cc2c(cc1OC)[C@@H](Nc1ccc(C#N)cc1)C1COC(=O)[C@@H]1C2c1cc(OC)c(O)c(OC)c1 (some centres not stated) | 85.9 µM and > 100 µM | 4.79 µM and 7.72 µM
COc1ccc2c(c1)/C(=C\c1c(-c3cc(OC)ccc3OC)nc3sc(C)cn13)C(=O)N2C | > 100 µM | 56.9 µM
O=c1ccn(CC2(CO)CCC2)c(=O)[nH]1 | > 100 µM | –
CC(C)(O)/C=C\P(=O)(O)O | > 100 µM | –

SMILES | TGI | GI50
Cn1cc(C(=O)c2ccccc2)c2ccccc2c1=O | > 100 µM | –
N#Cc1cc(C#N)c(N)nc1N | > 100 µM | –
Cc1cc(S(=O)(=O)Nc2nc3ccccc3o2)c(SCc2ccccc2)cc1Cl | 41 µM | 18.4 µM
CCOC(=O)c1ccc(NC(=O)Nc2nncs2)cc1 | 29.6 µM | 0.508 µM
Cc1cc2nc3c4cc(O)ccc4n(CCN(C)C)c3nc2cc1C | 6.59 µM | 0.614 µM
CC(N)C(Cc1ccc(Cl)cc1)c1ccc(Cl)cc1 (configuration not stated) | 26.6 µM | 13.2 µM
O=[N+]([O-])c1cccc2nc3ccccc3c(NCCCn3ccnc3[N+](=O)[O-])c12 | 0.0126 µM | –
COc1cc(NS(C)(=O)=O)ccc1Nc1cc[nH]c2ccc3nccc3c12 | 24.2 µM | –
COC(=O)CC(NC(=O)OCc1ccccc1)C(C(C)=O)C(=O)OCc1ccccc1 (configuration not stated) | > 31.6 µM | –
O=c1[nH]c2ccccc2c(=O)n1/N=C/c1ccc(O)cc1 | > 100 µM | –
CN(C)C=Nc1ccn(CCO)c(=O)n1 | > 100 µM | –
CCSCC1CC(O)(c2ccccc2)CC(c2ccc(F)cc2)O1 (configuration not stated) | 7.7 µM | 2.18 µM
COC(=O)C1CCc2c1c(=O)n1c([nH]c3ccccc31)c2C#N (configuration not stated) | > 100 µM | –
CCN(CC)c1ccc(/C=N/NC(=O)CSc2nc3ccccc3c(=O)n2CCc2ccc(S(N)(=O)=O)cc2)c(O)c1 | > 100 µM | 2.23 µM
CCCCNC(=O)c1cc2c(cc1Cl)Sc1nccn1S2(=O)=O | > 100 µM | –
Cn1c2c(c3ccccc31)CCN(CCCCN1CCCCC1)C2=O | > 100 µM | –
N#CC12Cc3cc4c(cc3-c3cccc(c31)CCN2C(=O)c1ccccc1)OCO4 (configuration not stated) | > 100 µM | –
O=C(c1ccccc1)c1c(CC(O)c2ccccn2)n(C(=O)c2ccccc2)c2ccccc12 (configuration not stated) | 84.3 µM | –
CC(C)(O)[C@@H]1CC[C@@]2(C)CCCC(O)C2(O)C1 (some centres not stated) | > 100 µM | –
O=C(/C=C/c1cc(Cl)cc(Cl)c1O)c1cccc(O)c1 | > 100 µM | –
CC(=O)Nc1ccc(NCC(=O)Nn2cnc3ccc(S(=O)(=O)Nc4ccc(NC(C)=O)cc4)cc3c2=O)cc1 | > 100 µM | –
COc1ccc(C(c2cc(OC)c(OC)c(OC)c2)n2ccnc2)cc1O (configuration not stated) | > 100 µM | 0.789 µM
O=c1[nH]c(=O)n(COCc2ccccc2)c2ccsc12 | > 100 µM | –
CCN1C(=S)N(c2ccccc2)C2NC(=S)N(/N=C/C=C/c3ccccc3OC)C21 (configuration not stated) | > 100 µM | 0.751 µM
